In the supplement of paper PMC8728848:
The other results are listed elsewhere or left out.

Experiments:
Test in all cases: glycan array binding signal (z-score within array); higher = stronger binding
Conditions in all cases: glycan notation: IUPAC condensed, linker removed
[1] = target: Fuc(a1-2)Gal
Summary of the method: (§1)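 Glycan array data were curated from 3228 arrays in the Consortium for Functional Glycomics database and kept only where the protein sequence was available. Glycan names were converted to IUPAC-condensed notation, and columns mapping to the same glycan were averaged. The binding signal is a within-array Z-score, averaged across arrays of the same protein sequence at different concentrations or buffers and across linkers. Negative Z-scores can be read as non-binding.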

[2] = target: Fuc(a1-2)Gal(b1-3)GalNAc
Summary of the method: as §1

[3] = target: Fuc(a1-2)Gal(b1-3)GalNAc(b1-3)Gal
Summary of the method: as §1

[4] = target: Fuc(a1-2)Gal(b1-3)GalNAc(b1-3)Gal(a1-4)Gal(b1-4)Glc
Summary of the method: as §1

[5] = target: Fuc(a1-2)Gal(b1-3)GalNAc(b1-4)[Neu5Ac(a2-3)]Gal(b1-4)Glc
Summary of the method: as §1

[6] = target: Fuc(a1-2)Gal(b1-3)GlcNAc
Summary of the method: as §1

[7] = target: Fuc(a1-2)Gal(b1-3)GlcNAc(b1-3)Gal(b1-4)Glc
Summary of the method: as §1

[8] = target: Fuc(a1-2)Gal(b1-3)[Fuc(a1-4)]GlcNAc
Summary of the method: as §1

[9] = target: Fuc(a1-2)Gal(b1-4)Glc
Summary of the method: as §1

[10] = target: Fuc(a1-2)Gal(b1-4)Glc6S
Summary of the method: as §1

[11] = target: Fuc(a1-2)Gal(b1-4)GlcNAc
Summary of the method: as §1

[12] = target: Fuc(a1-2)Gal(b1-4)GlcNAc(b1-3)Gal(b1-4)GlcNAc
Summary of the method: as §1

[13] = target: Fuc(a1-2)Gal(b1-4)GlcNAc(b1-3)Gal(b1-4)GlcNAc(b1-3)Gal(b1-4)GlcNAc
Summary of the method: as §1

[14] = target: Fuc(a1-2)Gal(b1-4)GlcNAc6S
Summary of the method: as §1

[15] = target: Fuc(a1-2)Gal(b1-4)[Fuc(a1-3)]GlcNAc
Summary of the method: as §1

[16] = target: Fuc(a1-2)Gal(b1-4)[Fuc(a1-3)]GlcNAc(b1-3)Gal(b1-4)[Fuc(a1-3)]GlcNAc
Summary of the method: as §1

[17] = target: Fuc(a1-2)Gal(b1-4)[Fuc(a1-3)]GlcNAc(b1-3)Gal(b1-4)[Fuc(a1-3)]GlcNAc(b1-3)Gal(b1-4)[Fuc(a1-3)]GlcNAc
Summary of the method: as §1

[18] = target: Fuc(a1-2)Gal6S(b1-4)Glc
Summary of the method: as §1

[19] = target: Fuc(a1-2)Gal6S(b1-4)Glc6S
Summary of the method: as §1

[20] = target: Fuc(a1-2)Gal6S(b1-4)GlcNAc
Summary of the method: as §1

[21] = target: Fuc(a1-2)[Gal(a1-3)]Gal
Summary of the method: as §1

[22] = target: Fuc(a1-2)[Gal(a1-3)]Gal(b1-3)GlcNAc
Summary of the method: as §1

[23] = target: Fuc(a1-2)[Gal(a1-3)]Gal(b1-4)Glc
Summary of the method: as §1

[24] = target: Fuc(a1-2)[Gal(a1-3)]Gal(b1-4)GlcNAc
Summary of the method: as §1

[25] = target: Fuc(a1-2)[Gal(a1-3)]Gal(b1-4)[Fuc(a1-3)]GlcNAc
Summary of the method: as §1

[26] = target: Fuc(a1-2)[Gal(a1-4)]Gal(b1-4)GlcNAc
Summary of the method: as §1

[27] = target: Fuc(a1-2)[GalNAc(a1-3)]Gal
Summary of the method: as §1

[28] = target: Fuc(a1-2)[GalNAc(a1-3)]Gal(b1-3)GlcNAc
Summary of the method: as §1

[29] = target: Fuc(a1-2)[GalNAc(a1-3)]Gal(b1-4)Glc
Summary of the method: as §1

[30] = target: Fuc(a1-2)[GalNAc(a1-3)]Gal(b1-4)GlcNAc
Summary of the method: as §1

[31] = target: Fuc(a1-2)[GalNAc(a1-3)]Gal(b1-4)[Fuc(a1-3)]GlcNAc
Summary of the method: as §1

[32] = target: Fuc(a1-2)[GalNAc(a1-4)]Gal(b1-4)GlcNAc
Summary of the method: as §1

[33] = target: Fuc(a1-2)[GalNAc(b1-3)]Gal
Summary of the method: as §1

[34] = target: Fuc(a1-3)GlcNAc
Summary of the method: as §1

[35] = target: Fuc(a1-3)[Gal(b1-4)]Glc6S
Summary of the method: as §1

[36] = target: Fuc(a1-3)[Gal(b1-4)]GlcNAc
Summary of the method: as §1

[37] = target: Fuc(a1-3)[Gal(b1-4)]GlcNAc(b1-2)Man(a1-3)[Fuc(a1-3)[Gal(b1-4)]GlcNAc(b1-2)Man(a1-6)]Man(b1-4)GlcNAc(b1-4)GlcNAc
Summary of the method: as §1

[38] = target: Fuc(a1-3)[Gal(b1-4)]GlcNAc(b1-2)Man(a1-6)[Gal(b1-4)GlcNAc(b1-2)Man(a1-3)]Man(b1-4)GlcNAc(b1-4)GlcNAc
Summary of the method: as §1

[39] = target: Fuc(a1-3)[Gal(b1-4)]GlcNAc(b1-3)Gal(b1-3)[Fuc(a1-4)]GlcNAc
Summary of the method: as §1

[40] = target: Fuc(a1-3)[Gal(b1-4)]GlcNAc(b1-4)Gal(b1-4)[Fuc(a1-3)]GlcNAc
Summary of the method: as §1

[41] = target: Fuc(a1-3)[Gal(b1-4)]GlcNAc(b1-4)Gal(b1-4)[Fuc(a1-3)]GlcNAc(b1-4)Gal(b1-4)[Fuc(a1-3)]GlcNAc
Summary of the method: as §1

[42] = target: Fuc(a1-3)[Gal(b1-4)]GlcNAc6S
Summary of the method: as §1

[43] = target: Fuc(a1-3)[Gal3S(b1-4)]Glc6S
Summary of the method: as §1

[44] = target: Fuc(a1-3)[Gal3S(b1-4)]GlcNAc
Summary of the method: as §1

[45] = target: Fuc(a1-3)[Gal3S(b1-4)]GlcNAc6S
Summary of the method: as §1

B1: TbCVNHOb (Tuber borchii) (protein)
chain: MSFYASSEDVRTIEEGGRTWLVGRARRADGSWQDIKLDLDNIIGNRDGHLTWGEQNFTQSASDIRFNFEGGSNVPVLRAKLRNAAGGEQESDLNLGERLTNNNGDLVFN
glycan array binding signal (z-score) [1]: 0.109 | glycan array binding signal (z-score) [2]: -0.096 | glycan array binding signal (z-score) [3]: 0.011 | glycan array binding signal (z-score) [4]: 0.303 | glycan array binding signal (z-score) [5]: -0.101 | glycan array binding signal (z-score) [6]: 0.098 | glycan array binding signal (z-score) [7]: 1.56 | glycan array binding signal (z-score) [8]: 0.009 | glycan array binding signal (z-score) [9]: -0.13 | glycan array binding signal (z-score) [10]: -0.208 | glycan array binding signal (z-score) [11]: -0.037 | glycan array binding signal (z-score) [12]: -0.059 | glycan array binding signal (z-score) [13]: 0.048 | glycan array binding signal (z-score) [14]: 0.043 | glycan array binding signal (z-score) [15]: -0.012 | glycan array binding signal (z-score) [16]: -0.184 | glycan array binding signal (z-score) [17]: -0.041 | glycan array binding signal (z-score) [18]: -0.297 | glycan array binding signal (z-score) [19]: -0.146 | glycan array binding signal (z-score) [20]: -0.265 | glycan array binding signal (z-score) [21]: -0.159 | glycan array binding signal (z-score) [22]: -0.095 | glycan array binding signal (z-score) [23]: -0.181 | glycan array binding signal (z-score) [24]: -0.033 | glycan array binding signal (z-score) [25]: -0.032 | glycan array binding signal (z-score) [26]: -0.123 | glycan array binding signal (z-score) [27]: -0.125 | glycan array binding signal (z-score) [28]: 0.078 | glycan array binding signal (z-score) [29]: -0.147 | glycan array binding signal (z-score) [30]: -0.168 | glycan array binding signal (z-score) [31]: 0.144 | glycan array binding signal (z-score) [32]: -0.096 | glycan array binding signal (z-score) [33]: -0.107 | glycan array binding signal (z-score) [34]: 0.012 | glycan array binding signal (z-score) [35]: 0.185 | glycan array binding signal (z-score) [36]: -0.074 | glycan array binding signal (z-score) [37]: -0.139 | glycan array binding signal (z-score) [38]: -0.121 | glycan array binding signal (z-score) [39]: -0.147 | glycan array binding signal (z-score) [40]: 0.251 | glycan array binding signal (z-score) [41]: -0.154 | glycan array binding signal (z-score) [42]: -0.236 | glycan array binding signal (z-score) [43]: 0.111 | glycan array binding signal (z-score) [44]: -0.09 | glycan array binding signal (z-score) [45]: -0.058
